# According to PubChem BioAssay AID504832 (National Center for Advancing Translational Sciences (NCATS), 2011):
# The campaign covered roughly 310,000 compounds. About 18,000 (5.8%) were called active. Inconclusive means that the source gave no clear call. Such entries were picked first, then a sample of the others. Calls come from the whole dose curve; as a rule, active = well fitted inhibition curve with a large enough effect; inconclusive = small, poorly fitted or top-dose-only effect, or another doubt; inactive = no such curve, though single readings can be large or run the other way. No potency is given beside an inconclusive call; the fits are too rough.
# Assay: Primary qHTS for delayed death inhibitors of the malarial parasite plastid, 48 hour incubation
# Details: P. falciparum luciferase growth in erythrocytes; series mostly up to 28.7 µM; activity change, negative = inhibition: at the top concentration
# Summary of the method: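 Growth was read as firefly luciferase luminescence after a 48 h, 37 C, 5% CO2 exposure of compounds to reporter-bearing P. falciparum cultures (0.1% parasitemia, 2% hematocrit final) in Albumax-supplemented RPMI 1640.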
# % is set by controls: 0 for no effect and ±100 for the full control effect; potency is the fitted concentration of half-maximal effect; tags give direction and shape of the fitted curve.
Compound,"activity change, negative = inhibition",Potency
C=C1CCN(Cc2ccccc2)S(=O)(=O)c2ccccc21,inactive: -8.77%,–
CCC1(c2ccc(F)cc2)NC(=O)N(CC(=O)N2c3ccccc3CC2C)C1=O (stereo not drawn),–,"inconclusive [inhibitor, partial curve, poor fit]"
O=C1N/C(=C\c2ccc(O)cc2)C(=O)c2ccccc21,–,"inconclusive [inhibitor, partial curve, poor fit]"
COc1cc(O)cc2cc3c(c(O)c12)C(=O)CC(C)(O)O3 (stereo not drawn),–,"inconclusive [inhibitor, single point]"
Cc1ccc(C)c(N2CCN(C(=O)c3cc(S(=O)(=O)N4CCOCC4)cn3C)CC2)c1,–,"inconclusive [inhibitor, single point]"
CCCCCCC(C)OC(=O)c1ccccc1C(=O)O (stereo not drawn),–,"inconclusive [inhibitor, single point]"
O=C(O)c1c(Cl)c(Cl)c(Cl)c(Cl)c1-c1c2cc(I)c(=O)c(I)c-2oc2c(I)c(O)c(I)cc12,inactive: -7.35%,–
NC(=NCCc1ccccc1)NS(=O)(=O)c1ccc2ccccc2c1,inactive: 15.7%,–
COc1ccccc1N1CCN(Cc2nc(N)nc(Nc3ccc(C)c(Cl)c3)n2)CC1,–,"inconclusive [inhibitor, partial curve]"
COc1ccccc1N1CCN(C(=O)C(C)N(c2ccccc2)S(C)(=O)=O)CC1 (stereo not drawn),–,"inconclusive [inhibitor, partial curve, poor fit]"
O=C(CN1CCN(C(c2ccccc2)c2ccccc2)CC1)NC(=O)NCc1ccco1,–,active: 9.28 µM
CN(CC(=O)Nc1cc([N+](=O)[O-])ccc1Cl)Cc1ccc(Br)cc1,–,"inconclusive [inhibitor, partial curve, poor fit]"
Cc1ccnc(Nc2nc(-c3ccc(O)c(O)c3)cs2)c1,–,"inconclusive [inhibitor, partial curve]"
COc1cccc(CN2CC(C(=O)NCCc3ccccc3C(F)(F)F)CCC2=O)c1 (stereo not drawn),–,"inconclusive [inhibitor, partial curve, poor fit]"
O=C(CCCCCN1C(=O)[C@@H]2Cc3ccccc3CN2C1=O)Nc1ccccc1F,inactive: -19.8%,–
COC(=O)c1cc(NC(=O)Cn2c(=O)oc3ccccc32)cc(C(=O)OC)c1,inactive: 2.18%,–
COc1ccc(NC(=O)c2cc([N+](=O)[O-])ccc2NC(=O)CNC2CCCCC2C)c(OC)c1 (stereo not drawn),–,active: 6.57 µM
Cc1ccc(SCCC(=O)OC(C)C(=O)Nc2ccccc2)cc1 (stereo not drawn),inactive: 6.45%,–
O=C(CCC(=O)Nc1ccccc1)N/N=C/c1cccnc1,inactive: 6.97%,–
CCOC(=O)C1(CCOC)CCN(Cc2cnc(-c3cccc(C)c3)nc2)CC1,–,"inconclusive [inhibitor, single point]"
O=C(Nc1ccc2c(c1)OCCO2)c1ccc(CN2CCOCC2)cc1,inactive: 86.1%,–
O=C(O)c1c[nH]c(=O)c2ccccc12,–,"inconclusive [inhibitor, partial curve, poor fit]"
Cc1ccc(CSCC(=O)N(C)CC(=O)Nc2ccccc2Cl)cc1,–,"inconclusive [inhibitor, single point]"

Compound,"activity change, negative = inhibition",Potency
COC(=O)c1ccc(-c2ccc([C@H]3[C@H]4C=CC[C@@H](C)[C@@H]4C(=O)N3Cc3ccccc3)c(F)c2)cc1,–,"inconclusive [inhibitor, single point]"
CCOC(=O)c1cc2c(=O)n3ccccc3nc2n(CC2CCCO2)c1=NC(=O)/C=C/c1ccccc1 (stereo not drawn),–,"inconclusive [inhibitor, partial curve]"
CCCCSc1nnc([C@H](C)NC(=O)OC(C)(C)C)o1,inactive: 14.4%,–
COC(=O)c1ccc(Oc2c(F)c(F)nc(N3CCOCC3)c2F)cc1,inactive: 24.6%,–
COc1cc(NC(=O)c2cc([N+](=O)[O-])ccc2N2CCOCC2)ccc1NC(=O)c1ccco1,–,"inconclusive [inhibitor, single point]"
N#C/C(=C\c1c(Cl)cccc1Cl)c1nc2ccccc2[nH]1,–,active: 8.28 µM
Nc1cc(Nc2ccccc2)c2nonc2c1[N+](=O)[O-],–,"inconclusive [inhibitor, full curve, poor fit]"
CCS(=O)(=O)N1CCN(C(=O)CC(C)C)CC1,–,"inconclusive [inhibitor, single point]"
COc1ccc(-c2c[n+](CC(=O)c3cccs3)c3n2CCC3)cc1,–,active: 2.33 µM
Cc1ccc(C)c(N2CCN(C(=O)c3ccc(Cl)c(NC4=NC5CS(=O)(=O)CC5S4)c3)CC2)c1 (stereo not drawn),–,"inconclusive [inhibitor, single point]"
COc1ccc(S(=O)(=O)N(C)CC(=O)NCCCN2CCOCC2)cc1Cl,inactive: 21.6%,–
COc1cc(OC)c2c(-c3ccccc3)cc(=O)oc2c1C(CC(=O)N1CCOCC1)c1ccc(N(C)C)cc1 (stereo not drawn),–,active: 7.38 µM
Cc1cc(NC(=O)CN2C(=O)NC3(CCCCC3)C2=O)ccc1N1CCCC1,–,"inconclusive [inhibitor, single point]"
Nc1nc2c3ccccc3nc(Cc3ccccc3)n2n1,–,"inconclusive [inhibitor, partial curve, poor fit]"
Cc1ccc(NC2=NC(c3ccc(C)cc3)n3c(nc(C)cc3=O)N2)cc1 (stereo not drawn),–,"inconclusive [inhibitor, single point]"
c1ccc(-c2cc3c(NCC4COc5ccccc5O4)ncnc3s2)cc1 (stereo not drawn),–,"inconclusive [inhibitor, single point]"
Cc1cccc(NC(=S)N2CCCCCC2)c1,inactive: 44.6%,–
COc1cc(CN2CCC(Cc3ccccc3)CC2)cc(OC)c1OC,–,"inconclusive [inhibitor, single point]"
O=C(CN(c1ccc(Cl)cc1)S(=O)(=O)c1ccc(Cl)c([N+](=O)[O-])c1)NCCc1ccccc1,–,"inconclusive [inhibitor, single point]"
COc1ccc(-c2ccc(CCC(=O)O)n2NC(=O)c2ccc(C(C)(C)C)cc2)cc1,–,"inconclusive [inhibitor, single point]"
CCOc1cc(C(=O)NCc2ccccc2)ccc1OCC(=O)N1CCCCC1,–,"inconclusive [inhibitor, single point]"
N#Cc1ccccc1Cn1cc(/C=N/Nc2ccc([N+](=O)[O-])cn2)c2ccccc21,–,"inconclusive [inhibitor, partial curve]"
COc1ccc(S(=O)(=O)N/N=C(/C)c2cccc(NC(=O)c3ccccc3Cl)c2)cc1,inactive: 4.64%,–

Compound,"activity change, negative = inhibition",Potency
COc1cc2ccccc2cc1C(=O)N(CCN(C)C)c1nc2c(OC)ccc(OC)c2s1,–,"inconclusive [inhibitor, partial curve]"
O=C(CCc1nnc2ccc(N3CCC4(CC3)OCCO4)nn12)Nc1cc(F)ccc1F,inactive: -8.54%,–
CCOC(=O)C1=C(C)NC(=O)NC1c1ccc(OCC(=O)OC)c(OC)c1 (stereo not drawn),–,"inconclusive [inhibitor, partial curve, poor fit]"
Cc1cc2oc(=O)cc(-c3cc4ccccc4o3)c2cc1OC(=O)N(C)C,–,"inconclusive [inhibitor, single point]"
Cc1ccc(C(=O)C2Oc3ccccc3C3CC(c4ccc(C)cc4)=NN23)cc1 (stereo not drawn),–,"inconclusive [inhibitor, single point]"
C/C(=N\NC(=O)C1CC1)c1ccccc1Br,–,"inconclusive [inhibitor, partial curve]"
CCNC(=S)N/N=C1\C(=O)c2cccc3cccc1c23,inactive: 11%,–
CCCC(C)NC(=S)NC(=O)c1cc(S(=O)(=O)N2CCOCC2)ccc1C (stereo not drawn),–,"inconclusive [inhibitor, partial curve]"
O=C1COc2ccc(C(=O)CCl)cc2N1,–,"inconclusive [inhibitor, partial curve]"
CC(C)CNC(=O)c1cc(-c2ccc(Cl)c(Cl)c2)on1,inactive: 0%,–
COc1ccc(-c2oc3cccnc3c2/C=C/c2ccc(OC)c(OC)c2)cc1,–,"inconclusive [inhibitor, single point]"
COc1cc(OC)nc(/N=C/NO)n1,inactive: 32.7%,–
COc1ccccc1N1CCN(Cc2ccccc2)CC1,–,"inconclusive [inhibitor, full curve, poor fit]"
CCCCN(CCCC)C(=O)C1(P(=O)(c2ccccc2)c2ccccc2)CCC1,–,"inconclusive [inhibitor, partial curve]"
CN1CCN(c2ccc(NC(=O)COc3ccc4ccccc4c3)cc2)CC1,–,"inconclusive [inhibitor, single point]"
Cc1ccc(N(CC(=O)NC(C)(C)C)C(=O)CNC(=O)c2cccs2)cc1C,–,"inconclusive [inhibitor, partial curve]"
COc1ccc(OC)c(C2C(C(=O)O)c3ccccc3C(=O)N2C)c1 (stereo not drawn),inactive: 0.288%,–
CC(=O)c1ccc(OCCCC(=O)Nc2ccc3c(c2)OCCO3)cc1,inactive: -21.3%,–
CC(=O)c1ccc(S(=O)(=O)N2CCN(C(=O)CSc3ccc(C)c(C)c3)CC2)cc1,–,"inconclusive [inhibitor, partial curve]"
O=C(N/C=N/OCc1ccc(Cl)cc1Cl)NOCc1ncc(C(F)(F)F)cc1Cl,–,"inconclusive [inhibitor, partial curve]"
CC1(C)CC(NC(=S)Nc2ccc(S(N)(=O)=O)cc2)CC(C)(C)N1,inactive: -19.5%,–
OC(c1ccc(F)cc1)(C1CCCCC1)C(CN1CCOCC1)c1ccccc1 (stereo not drawn),–,"inconclusive [inhibitor, full curve, poor fit]"
